# Source: a collection of fitness landscapes (doi:10.1126/science.1257360)
# The list shows a part of the results.
# B1: PhoQ; a variant is named by its letters at X, in order, P23837 (parent)
# chain: MKKLLRLFFPLSLRVRFLLATAAVVLVLSLAYGMVALIGYSVSFDKTTFRLLRGESNLFYTLAKWENNKLHVELPENIDKQSPTMTLIYDENGQLLWAQRDVPWLMKMIQPDWLKSNGFHEIEADVNDTSLLLSGDHSIQQQLQEVREDDDDAEMTHSVAVNVYPATSRMPKLTIVVVDTIPVELKSSYMVWSWFIYVLSANLLLVIPLLWVAAWWSLRPIEALAKEVRELEEHNRELLNPATTRELTSLVRNLNRLLKSERERYDKYRTTLTDLTHSLKTPLXXLQXXLRSLRSEKMSVSDAEPVMLEQISRISQQIGYYLHRASMRGGTLLSRELHPVAPLLDNLTSALNKVYQRKGVNISLDISPEISFVGEQNDFVEVMGNVLDNACKYCLEFVEISARQTDEHLYIVVEDDGPGIPLSKREVIFDRGQRVDTLRPGQGVGLAVAREITEQYEGKIVAGESMLGGARMEVIFGRQHSAPKDE
# Variants of: B1
# Assay: enrichment ratio after two sorts for PhoP signalling (ratio (wild type AVST 3.29)); higher = more functional
# Details: with PhoP (E. coli)
row,Variant,enrichment ratio
1,QRRI,≤ 0.25
2,FNFH,≤ 0.25
3,FMVC,≤ 0.25
4,HCPE,≤ 0.25
5,QNSM,6.97
6,KAEY,≤ 0.25
7,NSVM,≤ 0.25
8,WPAR,≤ 0.25
9,IGLA,≤ 0.25
10,RIPC,≤ 0.25
11,VDLT,≤ 0.25
12,LAPM,≤ 0.25
13,ASNC,≤ 0.25
14,GLNI,≤ 0.25
15,FFLK,≤ 0.25
16,VTTV,≤ 0.25
17,DEHN,≤ 0.25
18,WKAW,≤ 0.25
19,EYWY,≤ 0.25
20,ARNI,≤ 0.25
21,RFIY,≤ 0.25
22,MDVS,≤ 0.25
23,RHHH,≤ 0.25
24,LWVM,≤ 0.25
25,HPKH,≤ 0.25
26,GTHH,≤ 0.25

row,Variant,enrichment ratio
1,PFRE,≤ 0.25
2,WCFW,≤ 0.25
3,IFNI,≤ 0.25
4,RHCP,≤ 0.25
5,GFYN,≤ 0.25
6,DKNR,≤ 0.25
7,LREQ,≤ 0.25
8,QKCT,≤ 0.25
9,MIIT,≤ 0.25
10,ISTK,≤ 0.25
11,LKLE,≤ 0.25
12,NFLE,≤ 0.25
13,MGAY,1.59
14,QGDC,3.9
15,DFDW,≤ 0.25
16,WKYN,≤ 0.25
17,WFWN,≤ 0.25
18,MPWP,≤ 0.25
19,VQTQ,≤ 0.25
20,RSPG,≤ 0.25
21,VDNF,≤ 0.25
22,RLRF,≤ 0.25
23,PICY,≤ 0.25
24,EFSC,≤ 0.25
25,GCSG,6.35
26,FTLC,6.55

row,Variant,enrichment ratio
1,RVHV,≤ 0.25
2,FGFN,≤ 0.25
3,MTNY,≤ 0.25
4,SAGK,≤ 0.25
5,EHTQ,≤ 0.25
6,KRLK,≤ 0.25
7,YLCF,≤ 0.25
8,HEAY,≤ 0.25
9,FYYS,≤ 0.25
10,AHTI,≤ 0.25
11,NWNN,≤ 0.25
12,TSST,15
13,FNHP,≤ 0.25
14,QAGF,4.8
15,WCKF,≤ 0.25
16,GQML,7.95
17,QHAR,≤ 0.25
18,SAWE,≤ 0.25
19,LISD,≤ 0.25
20,DYEV,≤ 0.25
21,LYPE,≤ 0.25
22,HYSS,≤ 0.25
23,IEHE,≤ 0.25
24,VCNY,≤ 0.25
25,HMFI,≤ 0.25
26,SYLM,≤ 0.25

row,Variant,enrichment ratio
1,DRWT,≤ 0.25
2,RPKG,≤ 0.25
3,ECLY,≤ 0.25
4,HWNH,≤ 0.25
5,CAYL,≤ 0.25
6,ELEQ,≤ 0.25
7,FEHL,0.313
8,HMSD,≤ 0.25
9,GMYY,≤ 0.25
10,RREI,≤ 0.25
11,WGLM,6.8
12,ESIS,≤ 0.25
13,TAPN,≤ 0.25
14,ECPS,≤ 0.25
15,QGVM,≤ 0.25
16,HVRM,≤ 0.25
17,HKMM,≤ 0.25
18,ITPK,≤ 0.25
19,FPAY,≤ 0.25
20,GWSN,≤ 0.25
21,SQMK,≤ 0.25
22,GHPH,≤ 0.25
23,PCVD,≤ 0.25
24,KRAE,≤ 0.25
25,RLFS,≤ 0.25
26,NQVR,≤ 0.25

row,Variant,enrichment ratio
1,NPCP,≤ 0.25
2,RERK,≤ 0.25
3,GAER,≤ 0.25
4,IMQQ,≤ 0.25
5,IYQQ,≤ 0.25
6,SLGA,≤ 0.25
7,AYCQ,≤ 0.25
8,QMNR,≤ 0.25
9,QLDS,≤ 0.25
10,WTPN,≤ 0.25
11,KSHR,≤ 0.25
12,WNVK,≤ 0.25
13,TSQR,≤ 0.25
14,RRLL,≤ 0.25
15,GWRQ,≤ 0.25
16,PFNV,≤ 0.25
17,PMWF,≤ 0.25
18,VGFH,≤ 0.25
19,TVEV,≤ 0.25
20,SSSF,10
21,SPNP,≤ 0.25
22,KLKH,≤ 0.25
23,KAMG,≤ 0.25
24,EADS,≤ 0.25
25,PQTK,≤ 0.25
26,SFCT,≤ 0.25

row,Variant,enrichment ratio
1,LLDI,≤ 0.25
2,MTSM,5.44
3,KFDF,≤ 0.25
4,HHNN,≤ 0.25
5,TNKD,≤ 0.25
6,ARDY,≤ 0.25
7,HHHK,≤ 0.25
8,KQVM,≤ 0.25
9,ERYD,≤ 0.25
10,PKKE,≤ 0.25
11,VHDT,≤ 0.25
12,TDHQ,≤ 0.25
13,NSWI,0.708
14,RECQ,≤ 0.25
15,GCNY,≤ 0.25
16,PYEW,≤ 0.25
17,TVRS,≤ 0.25
18,WTYT,≤ 0.25
19,PYDV,≤ 0.25
20,VATN,≤ 0.25
21,INQN,≤ 0.25
22,NQWG,≤ 0.25
23,IRMS,≤ 0.25
